Experimental data as given in PubChem BioAssay AID1030 (National Center for Advancing Translational Sciences (NCATS), 2008).
The whole screen tested about 220,000 compounds, of which about 16,000 (7.3%) were called active. Inconclusive results, whose numbers are uncertain, are shown with a selection of clear calls. Calls follow the shape of the dose curve; as a rule, active = well fitted inhibition curve with a large enough effect (not every such curve was filed as active); inconclusive = small, poorly fitted or top-dose-only effect, or another doubt; inactive = no such curve, though single readings can be large or run the other way. Potencies of inconclusive entries are left out as doubtful fits.

These molecules were tested against Aldehyde dehydrogenase 1A1 (Homo sapiens) (UniProt P00352) (assay: qHTS Assay for Inhibitors of Aldehyde Dehydrogenase 1 (ALDH1A1)). Conditions: Purified ALDH1A1, NADH fluorescence, propionaldehyde substrate; series mostly up to 75.3 µM; activity, negative = inhibition: at the top concentration.
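For activity, negative = inhibition in this document: plate controls were no enzyme wells and a reference inhibitor.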
Potency is read from the fitted curve at half-maximal effect; tags tell the direction and shape of the fitted curve.

Chain of UniProt P00352 (P00352 whole entry, looked up): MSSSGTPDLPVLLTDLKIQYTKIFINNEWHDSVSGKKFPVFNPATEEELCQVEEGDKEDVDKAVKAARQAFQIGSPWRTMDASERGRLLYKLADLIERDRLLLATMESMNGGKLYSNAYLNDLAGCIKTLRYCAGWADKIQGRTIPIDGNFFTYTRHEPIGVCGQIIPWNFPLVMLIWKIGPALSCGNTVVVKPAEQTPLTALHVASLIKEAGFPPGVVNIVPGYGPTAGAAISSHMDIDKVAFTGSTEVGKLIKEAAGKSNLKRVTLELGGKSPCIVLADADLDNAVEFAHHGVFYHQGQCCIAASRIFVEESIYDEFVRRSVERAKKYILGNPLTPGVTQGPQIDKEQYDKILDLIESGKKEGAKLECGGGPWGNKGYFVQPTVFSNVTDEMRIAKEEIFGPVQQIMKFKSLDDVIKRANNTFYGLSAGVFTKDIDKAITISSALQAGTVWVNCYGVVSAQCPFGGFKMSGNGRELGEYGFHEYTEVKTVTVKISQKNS

Q: With `O=C(CCN1CCN(c2ccccc2)CC1)N/N=C/c1ccccc1OC(F)F` as the molecule, how does the “activity, negative = inhibition” value read?
A: The value was inactive: -6.54%.

Q: With `Cc1nc2scc(-c3ccccc3)c2c(=O)o1` as the molecule, how does the Potency read?
A: The Potency was inconclusive [inhibitor, single point].

Q: For `N#Cc1ccc2c(c1)NC(=O)C1CCCN21` (stereo not given), which Potency is on record?
A: The Potency was inconclusive [inhibitor, single point].

Q: How did the “activity, negative = inhibition” value turn out when `CC(C)CNc1nc(SCC(=O)Nc2ccccc2)nc(N2CCOCC2)n1` was run?
A: The value was inactive: 11.6%.

Q: For `COc1ccc(-c2nn3c(-c4ccco4)nnc3s2)cc1OC`, which Potency is on record?
A: The Potency was inconclusive [inhibitor, single point].

Q: With `CCOc1ccccc1N1CCN(S(=O)(=O)CC)CC1` as the molecule, how does the Potency read?
A: Its Potency is inconclusive [inhibitor, single point].

Q: Which Potency does the source give for `COc1ccc(Cn2nnnc2CN(Cc2cc3ccc(C)cc3[nH]c2=O)C2CCCC2)cc1` here?
A: The Potency was active: 22.4 µM.

Q: How did the Potency turn out when `COc1ccc(S(=O)(=O)NC(C)CCc2ccccc2)cc1` (stereo not given) was run?
A: The Potency was active: 0.631 µM.

Q: For `COc1ccc(/C=N/NC(=O)CNC(=O)c2ccc(S(=O)(=O)N3CCOCC3)cc2)cc1OC`, which Potency is on record?
A: The Potency was inconclusive [inhibitor, single point].

Q: With `COCc1n[nH]c(=S)n1-c1ccccc1` as the molecule, how does the “activity, negative = inhibition” value read?
A: The value was inactive: 1.28%.

Q: For `COc1ccc(NC(=O)C23CC4CC(C2)CC(n2cnc(Br)n2)(C4)C3)c(OC)c1`, which Potency is on record?
A: The Potency was inconclusive [inhibitor, single point].

Q: How did the Potency turn out when `O=C(CSc1nnc(CNc2ccc(F)cc2)n1Cc1ccccc1)NCc1ccco1` was run?
A: The Potency was inconclusive [inhibitor, single point].

Q: With `COc1ccc(C(C)(C)C)cc1NC(=O)Nc1ccc2c(c1)OCO2` as the molecule, how does the “activity, negative = inhibition” value read?
A: The value was inactive: 5.28%.

Q: With `CC(O)CNCCCOc1cccc(C(F)(F)F)c1` (stereo not given) as the molecule, how does the Potency read?
A: The Potency was inconclusive [inhibitor, partial curve].

Q: For `COc1ccc(NS(=O)(=O)c2cccc(NC(=O)c3ccc(S(=O)(=O)N4CCCCCC4)cc3)c2)cc1`, which Potency is on record?
A: Its Potency is inconclusive [inhibitor, single point].

Q: How did the Potency turn out when `O=c1ccnc(SCn2nnc3ccccc3c2=O)[nH]1` was run?
A: Its Potency is inconclusive [inhibitor, partial curve].

Q: `C=CCSC1=C(C#N)C(c2cccc(OC)c2)CC(=O)N1` (stereo not given) was tested. Which Potency did it give?
A: The Potency was inconclusive [inhibitor, single point].

Q: Which Potency does the source give for `COC(=O)c1ccc2c(=O)n(CC3CCCO3)c(SCC(=O)Nc3ccccc3OC)nc2c1` (stereo not given) here?
A: The Potency was active: 14.1 µM.

Q: With `O=C(CNS(=O)(=O)c1ccccc1)OCC(=O)c1ccc([N+](=O)[O-])cc1` as the molecule, how does the Potency read?
A: The Potency was active: 1.12 µM.

Q: With `COC(=O)C1=C(C)Nc2nnnn2C1c1cccs1` (stereo not given) as the molecule, how does the Potency read?
A: The Potency was active: 2.82 µM.

Q: For `CC/C(=N/NS(=O)(=O)c1ccc(Cl)cc1)c1ccc(O)cc1`, which Potency is on record?
A: The Potency was inconclusive [inhibitor, single point].

Q: For `CC(=O)Nc1ccc(/C(C)=N/NC(=O)c2ccncc2)cc1`, which Potency is on record?
A: The Potency was inconclusive [inhibitor, single point].

Q: With `O=C(/C=C/c1ccccc1)NC(NC(=S)Nc1ccc(Cl)cc1Cl)C(Cl)(Cl)Cl` (stereo not given) as the molecule, how does the Potency read?
A: Its Potency is inconclusive [inhibitor, single point].

Q: `COCCNC(=S)NC(=O)c1ccc(C(C)(C)C)cc1` was tested. Which Potency did it give?
A: The Potency was inconclusive [inhibitor, single point].

Q: For `COc1ccc(C(=O)Nn2c(SCC(=O)NC3CCCCC3)nc3ccccc3c2=O)cc1`, which Potency is on record?
A: The Potency was inconclusive [inhibitor, partial curve].

Q: `COc1cc(NC(=O)c2cc(C)nc3ccccc23)cc(OC)c1` was tested. Which Potency did it give?
A: The Potency was inconclusive [inhibitor, single point].

Q: How did the Potency turn out when `Nc1nc(SCC(=O)N2CCCc3ccccc32)[nH]c(=O)c1-c1ccccc1` was run?
A: Its Potency is active: 22.4 µM.

Q: Which Potency does the source give for `O=c1cc(C(F)(F)F)nc(-n2[nH]c3c(c2=O)CCCC3)[nH]1` here?
A: Its Potency is inconclusive [inhibitor, single point].

Q: For `CCOC(=O)N1CCN(C(=O)CN(Cc2ccc(Cl)cc2)S(=O)(=O)c2ccc(C)cc2)CC1`, which Potency is on record?
A: The Potency was inconclusive [inhibitor, single point].

Q: With `CCc1cc(-c2n[nH]c(=S)n2CC)cs1` as the molecule, how does the Potency read?
A: Its Potency is inconclusive [inhibitor, single point].

Q: With `COc1ccc(N2C(S)=C(C#N)C(=O)NC2c2ccc(OC)c(OC)c2)cc1` (stereo not given) as the molecule, how does the Potency read?
A: The Potency was inconclusive [inhibitor, partial curve, poor fit].

Q: How did the Potency turn out when `CCOc1cc(C2C3=C(CCCC3=O)N(CCC(=O)O)C3=C2C(=O)CCC3)ccc1OS(=O)(=O)c1ccc(C)cc1` was run?
A: Its Potency is inconclusive [inhibitor, partial curve].

Q: How did the Potency turn out when `COc1cccc(Cn2c(=O)cnc3cncnc32)c1` was run?
A: Its Potency is active: 2.51 µM.

Q: `Cc1nc(N2CCN(c3ccccn3)CC2)c2c(C)c(C(=O)Nc3ccccc3F)sc2n1` was tested. Which Potency did it give?
A: Its Potency is inconclusive [inhibitor, single point].

Q: Which Potency does the source give for `COc1cccc(CC2(CO)CCN(C(=O)NCCc3ccccc3)CC2)c1` here?
A: The Potency was inconclusive [inhibitor, partial curve].

Q: With `COC(=O)c1cc(=O)nc2sc(-c3ccccc3)nn12` as the molecule, how does the Potency read?
A: Its Potency is inconclusive [inhibitor, single point].

Q: With `CC(=O)c1ccc(N2CCN(C(=O)c3n[nH]c4ccccc34)CC2)cc1` as the molecule, how does the Potency read?
A: The Potency was inconclusive [inhibitor, single point].

Q: `Cc1ccc(-c2cc(NC(=O)CSc3n[nH]c(N)n3)n(-c3ccccc3)n2)cc1` was tested. Which “activity, negative = inhibition” value did it give?
A: The value was inactive: -4.82%.

Q: How did the Potency turn out when `C=C(C)c1cccc(C(C)(C)NC(=O)N2CCN(CC(N)=O)CC2)c1` was run?
A: Its Potency is inconclusive [inhibitor, single point].

Q: Which “activity, negative = inhibition” value does the source give for `CC(C)CC(=O)NC(=S)Nc1ccccc1F` here?
A: Its value is inactive: -4.19%.

Q: How did the “activity, negative = inhibition” value turn out when `O=C(NCCc1cccs1)C1CC(c2c(Cl)cccc2Cl)=NO1` (stereo not given) was run?
A: The value was inactive: -0.709%.

Q: How did the activity, negative = inhibition turn out when `CC(C)=CCC/C(C)=C/CO/N=C1/C[C@@H](O)[C@@H](O)[C@@H]2[C@@H]3C(=O)N([C@@H](C)c4ccccc4)C(=O)[C@H]3CC[C@H]12` was run?
A: The activity, negative = inhibition was inactive: 2.39% [at 13.5 µM].

Q: Which Potency does the source give for `OC1(c2ccccc2F)CCN(Cc2nnc(-c3ccccc3)o2)CC1` here?
A: Its Potency is inconclusive [inhibitor, single point].

Q: For `COc1ccccc1OCCCOc1ccc(C)cc1Br`, which “activity, negative = inhibition” value is on record?
A: The value was inactive: 4.13%.

Q: For `O=C1ON=C(c2ccccc2)/C1=C/c1ccc(OS(=O)(=O)c2ccccc2)cc1`, which Potency is on record?
A: Its Potency is active: 11.2 µM.

Q: `Cc1nccn1S(=O)(=O)c1cc([N+](=O)[O-])ccc1Cl` was tested. Which Potency did it give?
A: The Potency was inconclusive [inhibitor, partial curve].

Q: With `O=S(=O)(NCc1ccccc1)c1ccc2c(c1)OCCO2` as the molecule, how does the Potency read?
A: Its Potency is inconclusive [inhibitor, single point].

Q: How did the “activity, negative = inhibition” value turn out when `O=C(Nc1ccc2c(c1)C(=O)NC2=O)c1ccc(Cl)s1` was run?
A: The value was inactive: 9.56%.

Q: For `COc1ccc(CC(=O)Nc2ccc(OC(C)=O)cc2C(=O)O)cc1`, which Potency is on record?
A: The Potency was inconclusive [inhibitor, single point].

Q: For `Nc1c(C(=O)NCCN2CCOCC2)c2nc3ccccc3nc2n1-c1ccc2c(c1)OCO2`, which Potency is on record?
A: The Potency was inconclusive [inhibitor, single point].

Q: With `O=C(Cn1cnc2ccccc2c1=O)OCCCCN1C(=O)c2ccccc2C1=O` as the molecule, how does the “activity, negative = inhibition” value read?
A: Its value is inactive: -1.33%.

Q: `CC1CCc2[nH]nc(C(=O)O)c2C1` (stereo not given) was tested. Which “activity, negative = inhibition” value did it give?
A: The value was inactive: 2.65%.

Q: `CCOC(=O)c1ccc(NC(=O)Cn2c(-c3nonc3N)nc3ccccc32)cc1` was tested. Which “activity, negative = inhibition” value did it give?
A: The value was inactive: 6.54%.

Q: How did the Potency turn out when `CC(=O)C1C(c2cccc(Oc3ccccc3)c2)NC(=O)NC1(O)C(F)(F)F` (stereo not given) was run?
A: The Potency was inconclusive [inhibitor, partial curve].

Q: Which Potency does the source give for `Cc1ccc2nc(-c3ccc(NC(=O)CN(C)S(=O)(=O)c4ccccc4)cc3)sc2c1` here?
A: The Potency was inconclusive [inhibitor, single point].

Q: `Cc1nc(SCC(=O)NC(C)(C)C)c2c(-c3cccs3)csc2n1` was tested. Which Potency did it give?
A: The Potency was inconclusive [inhibitor, partial curve].

Q: With `COc1cc(/C=C/C(=O)OCC(=O)N2CCOCC2)ccc1OCC#N` as the molecule, how does the Potency read?
A: Its Potency is inconclusive [inhibitor, partial curve].

Q: With `CCN(CC)CC(=O)n1c2c(c3ccccc31)CCCC2` as the molecule, how does the Potency read?
A: The Potency was active: 31.6 µM.

Q: Which Potency does the source give for `CCOc1c(S(=O)(=O)N2CCCC2)ccc(Cl)c1Cl` here?
A: The Potency was inconclusive [inhibitor, single point].

Q: How did the Potency turn out when `CC(=O)Nc1ccc(Sc2ccccc2C(=O)N2CCCC2)cn1` was run?
A: Its Potency is inconclusive [inhibitor, single point].

Q: How did the Potency turn out when `CN1CCN(c2ccc([N+](=O)[O-])cc2/C=N/NC(=O)c2cccc([N+](=O)[O-])c2)CC1` was run?
A: Its Potency is active: 20 µM.

Q: Which Potency does the source give for `S=c1[nH]ccn1-c1c(Cl)cccc1Cl` here?
A: Its Potency is inconclusive [inhibitor, single point].

Q: With `CC1(CC(=O)N/N=C/c2ccc(OCc3ccc(Cl)cc3Cl)cc2)OCCCO1` as the molecule, how does the Potency read?
A: Its Potency is inconclusive [inhibitor, partial curve].

Q: With `CC1(C)Cc2nc3sc4c(SCC(=O)NCc5ccccc5)ncnc4c3cc2CO1` as the molecule, how does the Potency read?
A: The Potency was active: 7.94 µM.

Q: `O=S1(=O)C=C(Sc2nc3ccccc3s2)c2ccccc21` was tested. Which Potency did it give?
A: The Potency was active: 14.1 µM.

Q: How did the Potency turn out when `CCCn1c(C)cc(/C=C(\C#N)C(=O)OCC(=O)Nc2ccc(OC)c(Cl)c2)c1C` was run?
A: Its Potency is inconclusive [inhibitor, partial curve].

Q: Which Potency does the source give for `CC1=NOC(=O)/C1=C\c1ccc(-c2ccc(Br)cc2)o1` here?
A: The Potency was active: 10 µM.

Q: `COc1ccc(-c2nc(C#N)c(N3CCCCCC3)o2)cc1` was tested. Which Potency did it give?
A: The Potency was inconclusive [inhibitor, partial curve].

Q: For `Cc1ccc2c(c1)NC(=O)C(CC(=O)NCCCN1CCCC1=O)O2` (stereo not given), which Potency is on record?
A: The Potency was inconclusive [inhibitor, partial curve].

Q: For `COc1ccc(OC)c(Nc2nc(-c3sc(NC(=O)CC(C)C)nc3C)cs2)c1`, which Potency is on record?
A: Its Potency is inconclusive [inhibitor, single point].
